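All cell lines were grown in 96-well plates and treated with compound for 48 hours. GI50: concentration for 50% inhibition of growth.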 A number of entries come with more than one value. This list holds those alone. The source may hold further records. For some of these results: The values listed for one entry repeat one measurement (runs, samples, wells, individuals or studies). What stands in brackets tells the records apart. Letters count within one entry.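 The concentration for full growth arrest is given as TGI.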 For some of these results: A record mostly stands for its own series of concentrations, not given here; a value can be the end of its range.
Columns and labels:
Experiment in all cases: NCI tumour cell line growth inhibition, 48 h
[1] = system: COLO 205 colon
[2] = system: HT29 colon
[3] = system: KM20L2 colon
[4] = system: SK-OV-3 ovarian
[5] = system: DMS 114 small cell lung
[6] = system: HCC-2998 colon
[7] = system: HCT-15 colon
[8] = system: LOX IMVI melanoma
[9] = system: M19-MEL melanoma
[10] = system: MOLT-4 leukemia
[11] = system: NCI-H23 lung
[12] = system: NCI-H522 lung
[13] = system: NCI/ADR-RES ovarian
[14] = system: OVCAR-4 ovarian
[15] = system: SF-268 CNS
[16] = system: SK-MEL-2 melanoma
[17] = system: SK-MEL-5 melanoma
[18] = system: SNB-78 CNS
[19] = system: RPMI-8226 leukemia
[20] = system: SF-295 CNS
[21] = system: A498 renal

Compound: CC(=O)OC(C)(C)/C=C/C(=O)[C@](C)(O)[C@H]1[C@H](O)C[C@@]2(C)[C@@H]3CC=C4[C@@H](C[C@H](O)C(=O)C4(C)C)[C@]3(CO)C(=O)C[C@]12C
- TGI [1]: 778 nM and 21.7 µM
- TGI [2]: 980 nM and 49.7 µM
- TGI [3]: 835 nM and 18.8 µM
- TGI [4]: 970 nM and 11.5 µM

Compound: NC(=S)N/N=C/c1ccc(O)cn1
- TGI [5]: 22.6 µM, 66.3 µM [1 test] and 327 µM [mean of 3 tests]
- TGI [6]: 51.1 µM and 1.16 mM
- TGI [7]: 57.6 µM and > 1.5 mM
- TGI [8]: 82.9 µM, > 1.5 mM, 292 µM
- TGI [9]: 49.1 µM and > 1.5 mM
- TGI [10]: 62.3 µM, 915 µM [1 test] and 30.8 µM [mean of 4 tests]
- TGI [11]: 13.1 µM and > 705 µM
- TGI [12]: 48.5 µM, 40.7 µM [1 test] and 1.24 mM [mean of 8 tests]
- TGI [13]: 9.64 µM and 127 µM
- TGI [14]: 8.51 µM [1 test] and > 1.5 mM [mean of 7 tests]
- TGI [15]: 45 µM, 14.8 µM, 731 µM
- TGI [16]: 142 µM [1 test] and > 1.45 mM [mean of 7 tests]
- TGI [17]: 36 µM, > 1.5 mM, 270 µM
- TGI [18]: 22.8 µM [1 test] and > 1.5 mM [mean of 5 tests]

Compound: C=C1C(=O)O[C@@H]2OC3(C)CCC4C(C)CCC1C42OO3 (some centres not stated)
- TGI [19]: 3.22 µM and > 100 µM

Compound: c1ccc(Nn2c(CCCCCCCCc3nnc(COc4ccccc4)n3Nc3ccccc3)nnc2COc2ccccc2)cc1
- TGI [20]: > 300 µM [1 test] and 19 µM [mean of 4 tests]

Compound: CN1CCC(C(=O)Nc2n[nH]c3nc(-c4ccc(O)cc4)c(Br)cc23)CC1
- GI50 [21]: 615 nM [sample A, mean of 2 tests] and 37.1 nM [sample B, mean of 2 tests]
- TGI [21]: 3.77 µM [sample A, mean of 2 tests] and 323 nM [sample B, mean of 2 tests]

Source: PubChem BioAssay (NCI)
